According to article PMC12820563:
The list shows a part of the results. The list includes weakly bound sequences.

Molecular target: T1, MBP-FoxP3dN (UniProt Q99JB6)
T1 sequence: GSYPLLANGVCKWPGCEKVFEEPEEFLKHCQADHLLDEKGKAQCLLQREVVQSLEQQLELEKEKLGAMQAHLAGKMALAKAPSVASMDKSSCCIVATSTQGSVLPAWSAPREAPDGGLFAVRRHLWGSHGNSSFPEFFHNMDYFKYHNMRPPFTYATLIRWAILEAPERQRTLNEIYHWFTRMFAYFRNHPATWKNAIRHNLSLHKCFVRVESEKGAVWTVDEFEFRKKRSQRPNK
Assay: PD-seq (MBP pull-down with sequencing)
Conditions: 20 mM Tris-HCl pH 7.5, 100 mM NaCl, 1.5 mM MgCl2, 0.4 uM protein, 0.1 uM dsDNA library, 30 min, room temperature, amylose pull-down; high values mean tight binding; double strand, one strand shown

| Sequence | binding signal (RPM ratio (pull-down/input)) |
| --- | --- |
| GATGATTGTTCTCCCAGCTGATGAATTAACGTAGTCGAGTAAACAAATTTTCCTAATCTTTCTGTTCAAGCGCCATCTAC | 0.352 |
| GATGATTGTTCTCCCAGCTGATGAATTTACTGAATCGAGTAAACAAATTTTCCTAATCTTTCTGTTCAAGCGCCATCTAC | 0.305 |
| GATGATTGTTCTCCCAGCTGATGAATTGCCACCCTCGAGTAAACAAATTTTCCTAATCTTTCTGTTCAAGCGCCATCTAC | 1.05 |
| GATGATTGTTCTCCCAGCTGATGAATTCGTACCCTCGAGTAAACAAATTTTCCTAATCTTTCTGTTCAAGCGCCATCTAC | 0.532 |
| GATGATTGTTCTCCCAGCTGATGAATTCGTTTCGTCGAGTAAACAAATTTTCCTAATCTTTCTGTTCAAGCGCCATCTAC | 1.69 |
| GATGATTGTTCTCCCAGCTGATGAATTGTACACTTCGAGTAAACAAATTTTCCTAATCTTTCTGTTCAAGCGCCATCTAC | 0.789 |
| GATGATTGTTCTCCCAGCTGATGAATTATCGGTGTCGAGTAAACAAATTTTCCTAATCTTTCTGTTCAAGCGCCATCTAC | 0.505 |
| GATGATTGTTCTCCCAGCTGATGAATTGTTCATCTCGAGTAAACAAATTTTCCTAATCTTTCTGTTCAAGCGCCATCTAC | 0.501 |
| GATGATTGTTCTCCCAGCTGATGAATTTAAATAATCGAGTAAACAAATTTTCCTAATCTTTCTGTTCAAGCGCCATCTAC | 0.436 |
| GATGATTGTTCTCCCAGCTGATGAATTCTGCGGTTCGAGTAAACAAATTTTCCTAATCTTTCTGTTCAAGCGCCATCTAC | 0.932 |
| GATGATTGTTCTCCCAGCTGATGAATTAAAAGGATCGAGTAAACAAATTTTCCTAATCTTTCTGTTCAAGCGCCATCTAC | 0.179 |
| GATGATTGTTCTCCCAGCTGATGAATTAGTGAGTTCGAGTAAACAAATTTTCCTAATCTTTCTGTTCAAGCGCCATCTAC | 2.09 |
| GATGATTGTTCTCCCAGCTGATGAATTCTGGCGATCGAGTAAACAAATTTTCCTAATCTTTCTGTTCAAGCGCCATCTAC | 0.446 |
| GATGATTGTTCTCCCAGCTGATGAATTTCTCTTATCGAGTAAACAAATTTTCCTAATCTTTCTGTTCAAGCGCCATCTAC | 0.296 |
| GATGATTGTTCTCCCAGCTGATGAATTCCCCAAGTCGAGTAAACAAATTTTCCTAATCTTTCTGTTCAAGCGCCATCTAC | 0.14 |
| GATGATTGTTCTCCCAGCTGATGAATTCTAATAGTCGAGTAAACAAATTTTCCTAATCTTTCTGTTCAAGCGCCATCTAC | 0.82 |
| GATGATTGTTCTCCCAGCTGATGAATTGATACTGTCGAGTAAACAAATTTTCCTAATCTTTCTGTTCAAGCGCCATCTAC | 0.819 |
| GATGATTGTTCTCCCAGCTGATGAATTACCGCTTTCGAGTAAACAAATTTTCCTAATCTTTCTGTTCAAGCGCCATCTAC | 1.09 |
| GATGATTGTTCTCCCAGCTGATGAATTTCTGGTATCGAGTAAACAAATTTTCCTAATCTTTCTGTTCAAGCGCCATCTAC | 0.404 |
| GATGATTGTTCTCCCAGCTGATGAATTGGGAGCATCGAGTAAACAAATTTTCCTAATCTTTCTGTTCAAGCGCCATCTAC | 0.787 |
| GATGATTGTTCTCCCAGCTGATGAATTACGATCGTCGAGTAAACAAATTTTCCTAATCTTTCTGTTCAAGCGCCATCTAC | 0.481 |

| Sequence | binding signal (RPM ratio (pull-down/input)) |
| --- | --- |
| GATGATTGTTCTCCCAGCTGATGAATTGCGGCTGTCGAGTAAACAAATTTTCCTAATCTTTCTGTTCAAGCGCCATCTAC | 0.75 |
| GATGATTGTTCTCCCAGCTGATGAATTTTTCACTTCGAGTAAACAAATTTTCCTAATCTTTCTGTTCAAGCGCCATCTAC | 0.25 |
| GATGATTGTTCTCCCAGCTGATGAATTCCGTATATCGAGTAAACAAATTTTCCTAATCTTTCTGTTCAAGCGCCATCTAC | 2.23 |
| GATGATTGTTCTCCCAGCTGATGAATTGAAACTGTCGAGTAAACAAATTTTCCTAATCTTTCTGTTCAAGCGCCATCTAC | 0.318 |
| GATGATTGTTCTCCCAGCTGATGAATTCCGGGGGTCGAGTAAACAAATTTTCCTAATCTTTCTGTTCAAGCGCCATCTAC | 0.538 |
| GATGATTGTTCTCCCAGCTGATGAATTCATGATTTCGAGTAAACAAATTTTCCTAATCTTTCTGTTCAAGCGCCATCTAC | 0.975 |
| GATGATTGTTCTCCCAGCTGATGAATTTCTACTTTCGAGTAAACAAATTTTCCTAATCTTTCTGTTCAAGCGCCATCTAC | 0.265 |
| GATGATTGTTCTCCCAGCTGATGAATTTCTAGACTCGAGTAAACAAATTTTCCTAATCTTTCTGTTCAAGCGCCATCTAC | 0.22 |
| GATGATTGTTCTCCCAGCTGATGAATTGTAGCGATCGAGTAAACAAATTTTCCTAATCTTTCTGTTCAAGCGCCATCTAC | 0.85 |
| GATGATTGTTCTCCCAGCTGATGAATTGTATTATTCGAGTAAACAAATTTTCCTAATCTTTCTGTTCAAGCGCCATCTAC | 5.22 |
| GATGATTGTTCTCCCAGCTGATGAATTGGTTTGCTCGAGTAAACAAATTTTCCTAATCTTTCTGTTCAAGCGCCATCTAC | 4.24 |
| GATGATTGTTCTCCCAGCTGATGAATTTGTAACCTCGAGTAAACAAATTTTCCTAATCTTTCTGTTCAAGCGCCATCTAC | 1.74 |
| GATGATTGTTCTCCCAGCTGATGAATTGGTTAATTCGAGTAAACAAATTTTCCTAATCTTTCTGTTCAAGCGCCATCTAC | 0.456 |
| GATGATTGTTCTCCCAGCTGATGAATTGAGTCGTTCGAGTAAACAAATTTTCCTAATCTTTCTGTTCAAGCGCCATCTAC | 0.673 |
| GATGATTGTTCTCCCAGCTGATGAATTGTATAATTCGAGTAAACAAATTTTCCTAATCTTTCTGTTCAAGCGCCATCTAC | 1.1 |
| GATGATTGTTCTCCCAGCTGATGAATTCGGCCTCTCGAGTAAACAAATTTTCCTAATCTTTCTGTTCAAGCGCCATCTAC | 5.44 |
| GATGATTGTTCTCCCAGCTGATGAATTCGACTAATCGAGTAAACAAATTTTCCTAATCTTTCTGTTCAAGCGCCATCTAC | 0.31 |
| GATGATTGTTCTCCCAGCTGATGAATTCGCGCTTTCGAGTAAACAAATTTTCCTAATCTTTCTGTTCAAGCGCCATCTAC | 1.34 |
| GATGATTGTTCTCCCAGCTGATGAATTCAATTCATCGAGTAAACAAATTTTCCTAATCTTTCTGTTCAAGCGCCATCTAC | 0.493 |
| GATGATTGTTCTCCCAGCTGATGAATTACTGGAATCGAGTAAACAAATTTTCCTAATCTTTCTGTTCAAGCGCCATCTAC | 0.268 |
| GATGATTGTTCTCCCAGCTGATGAATTCGAGATGTCGAGTAAACAAATTTTCCTAATCTTTCTGTTCAAGCGCCATCTAC | 0.429 |

| Sequence | binding signal (RPM ratio (pull-down/input)) |
| --- | --- |
| GATGATTGTTCTCCCAGCTGATGAATTGCCCGTTTCGAGTAAACAAATTTTCCTAATCTTTCTGTTCAAGCGCCATCTAC | 0.503 |
| GATGATTGTTCTCCCAGCTGATGAATTAAGGGTGTCGAGTAAACAAATTTTCCTAATCTTTCTGTTCAAGCGCCATCTAC | 0.679 |
| GATGATTGTTCTCCCAGCTGATGAATTGCAGCTGTCGAGTAAACAAATTTTCCTAATCTTTCTGTTCAAGCGCCATCTAC | 0.961 |
| GATGATTGTTCTCCCAGCTGATGAATTAGCGTAGTCGAGTAAACAAATTTTCCTAATCTTTCTGTTCAAGCGCCATCTAC | 0.719 |
| GATGATTGTTCTCCCAGCTGATGAATTGGTTGACTCGAGTAAACAAATTTTCCTAATCTTTCTGTTCAAGCGCCATCTAC | 3.33 |
| GATGATTGTTCTCCCAGCTGATGAATTGGCCTTGTCGAGTAAACAAATTTTCCTAATCTTTCTGTTCAAGCGCCATCTAC | 0.517 |
| GATGATTGTTCTCCCAGCTGATGAATTGTAACTCTCGAGTAAACAAATTTTCCTAATCTTTCTGTTCAAGCGCCATCTAC | 0.839 |
| GATGATTGTTCTCCCAGCTGATGAATTACCCGCATCGAGTAAACAAATTTTCCTAATCTTTCTGTTCAAGCGCCATCTAC | 0.961 |
| GATGATTGTTCTCCCAGCTGATGAATTGCTGCTATCGAGTAAACAAATTTTCCTAATCTTTCTGTTCAAGCGCCATCTAC | 1.05 |
| GATGATTGTTCTCCCAGCTGATGAATTCATAATATCGAGTAAACAAATTTTCCTAATCTTTCTGTTCAAGCGCCATCTAC | 0.693 |
| GATGATTGTTCTCCCAGCTGATGAATTACTCCACTCGAGTAAACAAATTTTCCTAATCTTTCTGTTCAAGCGCCATCTAC | 0.339 |
| GATGATTGTTCTCCCAGCTGATGAATTAACAGCGTCGAGTAAACAAATTTTCCTAATCTTTCTGTTCAAGCGCCATCTAC | 0.559 |
| GATGATTGTTCTCCCAGCTGATGAATTAATGAAATCGAGTAAACAAATTTTCCTAATCTTTCTGTTCAAGCGCCATCTAC | 0.31 |
| GATGATTGTTCTCCCAGCTGATGAATTATGGTCTTCGAGTAAACAAATTTTCCTAATCTTTCTGTTCAAGCGCCATCTAC | 0.688 |
| GATGATTGTTCTCCCAGCTGATGAATTAGAGTTATCGAGTAAACAAATTTTCCTAATCTTTCTGTTCAAGCGCCATCTAC | 0.768 |
| GATGATTGTTCTCCCAGCTGATGAATTCGTTCGGTCGAGTAAACAAATTTTCCTAATCTTTCTGTTCAAGCGCCATCTAC | 0.306 |
| GATGATTGTTCTCCCAGCTGATGAATTTTCGTCCTCGAGTAAACAAATTTTCCTAATCTTTCTGTTCAAGCGCCATCTAC | 0.297 |
| GATGATTGTTCTCCCAGCTGATGAATTAGTTTTATCGAGTAAACAAATTTTCCTAATCTTTCTGTTCAAGCGCCATCTAC | 2.34 |
| GATGATTGTTCTCCCAGCTGATGAATTCCGGTCATCGAGTAAACAAATTTTCCTAATCTTTCTGTTCAAGCGCCATCTAC | 0.506 |
| GATGATTGTTCTCCCAGCTGATGAATTCGTGGGTTCGAGTAAACAAATTTTCCTAATCTTTCTGTTCAAGCGCCATCTAC | 0.697 |
| GATGATTGTTCTCCCAGCTGATGAATTATTGCAGTCGAGTAAACAAATTTTCCTAATCTTTCTGTTCAAGCGCCATCTAC | 1.18 |
